Laboratory results published in paper PMC4336329 (PLoS ONE, 2015).
In all, about 310,000 compounds went through this assay and about 14,000 (4.5%) showed an effect of 50% or more. Effects have a minus sign here. This is one part of the list.

The compounds below were run against human ether-à-go-go-related gene (hERG) potassium channel (human, UniProt Q12809) (assay: primary screen, population patch clamp on CHO cells stably expressing hERG).
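Further: peak tail current of the secondary pulse compared with the same well before compound.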

human ether-à-go-go-related gene (hERG) potassium channel, sequence (Q12809 whole entry, looked up): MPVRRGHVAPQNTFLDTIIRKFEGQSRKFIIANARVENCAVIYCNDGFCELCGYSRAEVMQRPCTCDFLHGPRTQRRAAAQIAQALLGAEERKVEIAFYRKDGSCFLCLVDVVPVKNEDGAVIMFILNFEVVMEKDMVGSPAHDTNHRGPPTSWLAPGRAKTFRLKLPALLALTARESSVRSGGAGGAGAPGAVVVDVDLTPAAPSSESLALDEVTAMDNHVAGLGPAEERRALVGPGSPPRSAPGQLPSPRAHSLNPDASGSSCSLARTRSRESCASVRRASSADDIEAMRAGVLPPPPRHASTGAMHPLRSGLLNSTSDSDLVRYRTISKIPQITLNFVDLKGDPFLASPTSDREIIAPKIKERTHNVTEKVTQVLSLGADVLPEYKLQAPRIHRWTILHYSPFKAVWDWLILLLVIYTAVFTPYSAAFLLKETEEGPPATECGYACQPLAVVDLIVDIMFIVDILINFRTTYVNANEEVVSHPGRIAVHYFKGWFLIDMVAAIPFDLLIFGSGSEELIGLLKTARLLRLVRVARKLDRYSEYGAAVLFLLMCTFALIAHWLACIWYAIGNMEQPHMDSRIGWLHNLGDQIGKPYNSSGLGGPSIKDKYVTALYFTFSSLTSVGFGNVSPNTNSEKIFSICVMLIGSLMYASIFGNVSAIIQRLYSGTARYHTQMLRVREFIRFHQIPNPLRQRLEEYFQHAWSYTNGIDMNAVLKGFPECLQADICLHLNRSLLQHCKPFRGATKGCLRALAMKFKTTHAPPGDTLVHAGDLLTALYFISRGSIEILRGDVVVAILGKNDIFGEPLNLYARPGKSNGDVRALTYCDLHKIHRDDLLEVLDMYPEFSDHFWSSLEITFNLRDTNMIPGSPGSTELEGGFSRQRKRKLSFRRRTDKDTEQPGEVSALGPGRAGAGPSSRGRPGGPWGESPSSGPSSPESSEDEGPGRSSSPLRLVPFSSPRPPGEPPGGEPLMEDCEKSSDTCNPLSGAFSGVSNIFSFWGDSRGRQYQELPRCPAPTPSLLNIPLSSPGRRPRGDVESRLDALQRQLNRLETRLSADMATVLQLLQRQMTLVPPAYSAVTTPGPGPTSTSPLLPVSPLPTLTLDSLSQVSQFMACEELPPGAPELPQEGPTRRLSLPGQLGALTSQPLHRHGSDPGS

SMILES	hERG current change (%, negative = inhibition) at 10uM [%]
Cc1ccccc1OCC(=O)Nc1cccc(S(=O)(=O)NC2=NCCCCC2)c1	-7.89
CC(C)CN(C(=O)C1=NN(c2ccccc2)C(=O)CC1)c1c(N)n(Cc2ccccc2)c(=O)[nH]c1=O	9.29
CC(C)/C(C=O)=C(/NC1CCCCC1)c1ccccc1	12.8
O=C(Nc1nc2c(s1)CCCC2)c1nn(Cc2ccccc2)c(=O)c2ccccc12	-5.38
COc1ccc(NC(=O)c2c(C)cc(=O)oc2C)c(OC)c1	17.6
Cc1ccc(S(=O)(=O)N2CCN(c3nc4ccccc4nc3-n3nc(C)cc3C)CC2)cc1	-6.79
CCc1ccc(NC(=O)C2=CC=CN3CCS(=O)(=O)N=C23)cc1	-24.9
CCCCC(NC(=O)COc1cc2c(c3oc(=O)cc(C)c13)CCC(C)(C)O2)C(=O)O (stereo not shown)	7.13
Cc1cc2c(cc1S(=O)(=O)N(C)c1ccccc1)n(C)c(=O)n2C	1.73
CCOC(=O)C1=C(C)NC2=C(C(=O)C(C(=O)OCC)C(c3ccco3)C2)C1c1ccccn1 (stereo not shown)	-7.73
COC(=O)c1ccc(CNC(=O)c2ccc(OC)c(S(=O)(=O)NC3CCCC3)c2)cc1	-17.3
CCN(CC)c1ccc(/C=N/Nc2ccc(C)cc2)c(O)c1.Cl	11.5
O=S(=O)(c1cccs1)N1CN(C2CCCCC2)c2nc3ccccc3nc21	-1.72
Cc1ccc(SCc2nnc(N)s2)cc1	-4.47
O=C1/C(=C/C=C/c2ccco2)SC(=S)N1NS(=O)(=O)c1ccccc1	2.71
CC(=O)NCCOC(=O)Nc1ccncc1	8.58
O=C(CCn1c(=O)[nH]c2ccsc2c1=O)N(CCc1ccccc1)Cc1ccccc1	-28.9
CCC(CO)n1cnnc1-c1ccncc1 (stereo not shown)	20.9
Cc1nn(-c2ccccc2)nc1CNC(=O)C1CCC1	2.73
S=C1NC[C@H](Cc2cccc3ccccc23)N1CC1CCCCC1	10.3
COc1ccc(OC)c(CCNC(=O)C(C)n2nc(C)c3c(C)n(-c4ccc(C)cc4)nc3c2=O)c1 (stereo not shown)	-53.2
COc1ccc(C(=O)NCC(=O)NCc2cc(=O)n(C)c(=O)n2C)cc1	8.17

SMILES	hERG current change (%, negative = inhibition) at 10uM [%]
COc1ccc(CNC(=O)C2CCC(=O)N2C(C)C)c(OC)c1 (stereo not shown)	4.1
CCOC(CCn1c(SCC(=O)Nc2cc(C)on2)nc2ccccc2c1=O)OCC	11.2
CC1CCc2c(sc3ncnc(N4CCOCC4)c23)C1 (stereo not shown)	-16.6
Cc1cc(C(=O)OCC(=O)N2CC(C)OC(C)C2)c(C)n1-c1ccccc1 (stereo not shown)	-20.4
CCc1nnc(SCC(=O)Nc2ccccc2Cl)nc1CC	2.44
c1ccc(-c2noc(CN3CCN(C(c4ccccc4)c4ccccc4)CC3)n2)cc1	-0.736
CC(=O)NCc1nc2ccccc2n1C(C)C	6.51
Cc1cc([N+](=O)[O-])nn1CC(=O)NNC(=S)Nc1ccc(Cl)cc1	20.8
COC(=O)C1C(c2ccc(OC)cc2)NC(=O)NC1(O)C(F)(F)Cl (stereo not shown)	18.6
CC(=O)c1ccc(NC(=O)C2CCCN(S(=O)(=O)c3cccc4nonc34)C2)cc1 (stereo not shown)	14.2
CN1CC=C2C(C#N)=C(N)C(C#N)(C#N)C(CCc3ccccc3)C2C1 (stereo not shown)	-22.6
CCOc1c(OC)cc(C2C(C#N)=C(N)Oc3n[nH]c(-c4ccncc4)c32)cc1OC (stereo not shown)	-2.96
COc1cc(-c2noc(C)c2C#CC2(N)CCCCC2)cc(OC)c1OC	-29.7
Cc1ccc(N2C(=O)CC(c3c[nH]c4ccccc34)C2=O)cc1 (stereo not shown)	8.01
CC1CC(C)CN(C(=O)c2ccc(C(=O)c3ccccc3)cc2)C1 (stereo not shown)	-24.3
CCC(=O)OCCn1c(=O)c2cc3c(=O)n(CCOC(=O)CC)c(=O)c3cc2c1=O	-37.7
S=C(NCCc1ccccc1)N1CCN(Cc2ccc(Cl)c(Cl)c2)CC1	-2.53
O=C1NC2(CCCCC2)N=C1c1ccccc1	10.3
Cc1nn(CCCC(=O)Nc2ccc(Br)cc2F)c(C)c1[N+](=O)[O-]	-43.7
O=C(Nc1cccc(C(=O)NC2CC2)c1)c1ccc(Cl)c(S(=O)(=O)N2CCOCC2)c1	-21.1
CCOC(=O)c1ccc(NC(=O)c2nc[nH]c2C(=O)N[C@@H](C)C(=O)OC(C)(C)C)cc1	17.7
